Reference: PubChem BioAssay AID624171 (National Center for Advancing Translational Sciences (NCATS), 2012)
In all, about 410,000 compounds went through this assay and about 1,200 (0.29%) were called active. The inconclusive results got no clear call from the source; some entries with a clear call stand among them for comparison. Calls come from the whole dose curve; as a rule, active = well fitted activation curve with a large enough effect; inconclusive = small, poorly fitted or top-dose-only effect; inactive = flat fitted curve, though single readings scatter. A potency beside an inconclusive call is a rough fit, not a confirmed value.

assay: qHTS of Nrf2 Activators; conditions: AREc32 ARE-luciferase reporter (MCF7-derived line), luminescence, 24 h; activation: at 46.1 µM (top of the series); note: nearly all actives have a fitted effect of over 65% in size; for activation: % of control where 0% means no effect
In short: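 Luciferase luminescence (Steady-Glo, 30 min at room temperature) served as the read-out of ARE activation in AREc32 cells treated with compounds for 24 hr at 37 deg C.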
Potency is the fitted concentration of half-maximal effect; tags give direction and shape of the fitted curve.

Potency, inconclusive:
CCc1cc(C(=O)NNC(=O)CCl)sc1C 25.1 µM [activator, single point]
CCC1=Nc2ccccc2-c2nnc(SC)nc2O1 10 µM [activator, partial curve]
O=C(Nc1nc2ccc(Cl)cc2s1)c1ccco1 2.82 µM [activator, partial curve, poor fit]
COC(=O)c1ccccc1-c1ccc(C(c2c(C)[nH][nH]c2=O)c2c(C)[nH][nH]c2=O)o1 28.2 µM [activator, single point]
O=C1Cc2cccc3cccc1c23 17.8 µM [activator, partial curve, poor fit]
O=C(CC(Nc1ccc(F)cc1)C(=O)OCC(=O)c1cccs1)c1ccccc1 (stereo not given) 25.1 µM [activator, single point]
O=C(CSC1CS(=O)(=O)c2cc([N+](=O)[O-])ccc21)NNC(=O)c1ccccc1 (stereo not given) 15.8 µM [activator, partial curve, poor fit]
Cc1ccc(Cc2c(-c3ccco3)nc3c4ccccc4ccn23)cc1 2.24 µM [activator, full curve, poor fit]
Cc1ccccc1OCC(=O)N/N=C/c1cccc(Oc2ccc([N+](=O)[O-])cc2[N+](=O)[O-])c1 15.8 µM [activator, single point]
Fc1ccc(Nc2nc3ccccc3c3nncn23)c(Cl)c1 3.55 µM [activator, partial curve, poor fit]
CCC1CSC(Nc2ccc(C(=O)/C=C/c3ccc(OC)c(OC)c3)cc2)=N1 (stereo not given) 5.01 µM [activator, single point]
Oc1c(N=Nc2ccc(F)cc2)ccc2ccccc12 2.82 µM [activator, full curve, poor fit]
CCOC(=O)C1=C(COC(=O)CCOc2ccc(C)cc2)NC(=O)NC1C (stereo not given) 12.6 µM [activator, single point]
CCc1c(C)sc(NC(=O)c2cccs2)c1C#N 10 µM [activator, partial curve]
O=C1/C(=C/c2ccccc2)Nc2ccccc21 17.8 µM [activator, single point]
O=C(/C=C/c1ccccc1)NCC(=O)N/N=C/c1ccco1 28.2 µM [activator, single point]
NCCCn1c(C(=O)c2cc(Cl)c(N)c(Cl)c2)c2ccc([N+](=O)[O-])cc2[n+]1[O-] 11.2 µM [activator, partial curve, poor fit]
O=C(NC(=S)Nc1ccccc1F)c1ccc(Br)o1 6.31 µM [activator, partial curve]
Cc1ccc(O)c(N=Nc2nccs2)c1 28.2 µM [activator, single point]
CCN(CC)CCN(C(=O)CCS(=O)(=O)c1ccccc1)c1nc2c(C)cc(C)cc2s1 35.5 µM [activator, single point]
CN(Cc1ccccc1)c1ccc(-c2nc(-c3ccco3)no2)cc1[N+](=O)[O-] 10 µM [activator, partial curve]
Cc1ccc(Nc2ccc([N+](=O)[O-])nc2[N+](=O)[O-])cc1 31.6 µM [activator, single point]
Cc1ccc(NC(=O)CSc2c3c(nc4ccccc24)CCCC3)cc1F 31.6 µM [activator, single point]
Cc1csc(NC(=O)c2ccco2)n1 17.8 µM [activator, single point]
CC(C)S(=O)(=O)c1oc(-c2ccc(F)cc2)nc1S(=O)(=O)c1ccccc1 3.55 µM [activator, partial curve, poor fit]
ON1C2CCCCC2N(O)C1c1c(F)c(F)c(F)c(F)c1F (stereo not given) 35.5 µM [activator, single point]
COc1ccccc1NC(=O)c1c(Br)cnn1C 8.91 µM [activator, partial curve]
COc1ccc(OC)c(C(C[N+](=O)[O-])c2c(C)cc3ccccn23)c1 (stereo not given) 15.8 µM [activator, single point]
CC(=O)Nc1ccc(NC(=O)C(C)OC(=O)CCCN2C(=O)c3cccc4cccc(c34)C2=O)cc1 (stereo not given) 22.4 µM [activator, single point]
Cc1cccc(Nc2nnc(SC/C(O)=C(\C#N)c3nc4ccccc4[nH]3)s2)c1 20 µM [activator, single point]
O=[N+]([O-])C1C(c2ccccc2)C12c1ccccc1-c1ccccc12 (stereo not given) 15.8 µM [activator, partial curve, poor fit]
N/C(=N\OC(=O)c1cc(Cl)ccc1Cl)c1ccncc1 2.82 µM [activator, full curve, poor fit]
Cc1sc2ncn(/N=C/c3ccco3)c(=O)c2c1C 15.8 µM [activator, partial curve, poor fit]

Potency, active:
NC(=S)NN=C1CSSC1 10 µM

activation, inactive:
Cc1cccc(N2CCN(CCCNC(=O)C3CCCN(c4ncnc5c4nc4n5CCCCC4)C3)CC2C)c1 (stereo not given) 0.0693%
CN(C(=O)c1cccc(NC(=O)Cc2ccc(NC(=O)C3CCCN(C(=O)c4ccccc4)C3)cc2)c1)C1CCCCC1 (stereo not given) 4.6%
O=C(c1ccccc1Cl)N(Cc1ccco1)Cc1ccco1 1.04%
N#Cc1cccc(NC(=O)Cn2nc(Cc3ccncc3)c3ccccc3c2=O)c1 0.258%
CCN(CC)S(=O)(=O)c1cc(NC(=O)COc2ccc(C#N)cc2OC)ccc1C -0.666% [at 9.22 µM]
Cc1ccc(C)c(Oc2cc(NC(=O)CCCn3nc(C)c([N+](=O)[O-])c3C)cc([N+](=O)[O-])c2)c1 3.43%
